Measurements as given in the supplement of paper PMC3724861.
This is one part of the list.

System: T1, Caupolican (Caup) homeodomain DNA-binding domain
T1 sequence: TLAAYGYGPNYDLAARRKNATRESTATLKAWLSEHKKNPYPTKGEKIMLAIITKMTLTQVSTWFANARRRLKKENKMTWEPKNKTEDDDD
Assay: PBM E-score (8-mer, recovered from the published 9-mer minima) (E-score (dimensionless, -0.5 to 0.5)); Drosophila protein; higher = stronger relative binding preference, active = 0.31 or more
How it was run: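 An enrichment score, with higher meaning stronger, expresses relative binding preference for each short DNA word. The protein used was Caup's homeodomain DNA-binding domain (residues 214-303), produced by in vitro transcription and translation and tested at 100 nM on custom-designed protein binding microarrays. The 8-mer values were recovered from published 9-mer scores, each equal to the lower of its two constituent 8-mer scores.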

| Sequence | PBM E-score |
| --- | --- |
| AGAGACCC | inactive: -0.103 |
| AGGCTGAA | inactive: -0.0844 |
| GTGAGCGA | inactive: -0.119 |
| AAGGGTGA | inactive: -0.11 |
| CAGGAGCG | inactive: -0.152 |
| CCGTCTCC | inactive: -0.216 |
| GACCGTGC | inactive: -0.117 |
| CACACTAA | inactive: 0.106 |
| GGGACGGA | inactive: -0.244 |
| AAGTACGA | inactive: 0.113 |
| GACTGCTC | inactive: -0.135 |
| GAAGCCGC | inactive: -0.212 |
| CGGAACAG | inactive: 0.0672 |
| TCCCACCA | ≥ -0.0958 |
| GATAGCAC | inactive: -0.0686 |
| CAGGCATA | inactive: 0.0146 |
| AGAATCAG | inactive: 0.0451 |
| GAGTAATC | inactive: 0.0247 |
| GCTGGACC | inactive: -0.19 |
| GTAAATCA | inactive: 0.22 |
| AAAATGTT | inactive: 0.249 |
| ATGTATCA | active: 0.321 |
| AACCGATT | inactive: 0.014 |
| CGAACCAC | inactive: -0.0921 |
| AGTGCTCC | inactive: -0.279 |

| Sequence | PBM E-score |
| --- | --- |
| GCATACAC | inactive: 0.208 |
| AAATATAG | inactive: 0.125 |
| GAGGCTCA | inactive: -0.247 |
| AGACTACG | inactive: -0.0946 |
| CGCTTAAA | inactive: -0.0559 |
| CGACCCCG | inactive: -0.263 |
| CATTTTGA | inactive: 0.0478 |
| ATTATTCA | ≥ 0.173 |
| TAAGGATA | inactive: 0.117 |
| CCTTTATC | inactive: -0.0774 |
| CTCCCAGC | inactive: -0.155 |
| TAAGTGTA | inactive: 0.241 |
| ATCTCTCA | inactive: -0.00117 |
| GCTGGGAA | inactive: -0.146 |
| ACTGCGGC | inactive: -0.171 |
| CCGGGTAG | inactive: -0.086 |
| CGTTCGCA | inactive: -0.00371 |
| CGTAACGA | inactive: 0.00912 |
| CGCACCCC | inactive: -0.157 |
| TAACAGAA | inactive: 0.203 |
| TTAGCCAA | inactive: -0.018 |
| CGGAATAG | inactive: -0.0185 |
| TATCTTCA | inactive: 0.0318 |
| CGGTTGCC | inactive: -0.146 |
| ACTGGAAT | ≥ 0.0439 |

| Sequence | PBM E-score |
| --- | --- |
| CGCAGGGC | inactive: -0.236 |
| GAGAGAAC | inactive: 0.0231 |
| CACAAGCG | inactive: 0.0433 |
| GCTCCTGA | inactive: -0.231 |
| AATGTTAG | inactive: 0.253 |
| AATCTACG | inactive: -0.022 |
| GTGTGAGA | inactive: 0.00371 |
| GGTGCTAA | inactive: -0.0585 |
| AATCAATG | inactive: 0.155 |
| CTCACAAA | inactive: 0.00316 |
| CGCGTGGC | inactive: -0.286 |
| AATTCAGG | inactive: 0.0422 |
| ACGGCCAC | inactive: -0.212 |
| ATGGTTGA | inactive: 0.0905 |
| CACAACTA | inactive: 0.164 |
| TAACAATA | inactive: 0.268 |
| CAGTGTAC | inactive: 0.207 |
| ATGTTTGG | inactive: 0.229 |
| AAAGTTGA | inactive: 0.0111 |
| CCTCTACA | inactive: 0.0804 |
| GGACGAAA | inactive: -0.0239 |
| GATCTTGA | inactive: 0.101 |
| AAGCGCCG | inactive: -0.202 |
| CCAACAAC | inactive: 0.178 |
| AGGCCACC | inactive: -0.222 |

| Sequence | PBM E-score |
| --- | --- |
| TCTTGGAA | ≥ 0.0432 |
| AGAATAAT | inactive: 0.101 |
| TAAAAGCA | inactive: -0.0301 |
| AGCATTTC | inactive: 0.0508 |
| CACTTAAA | inactive: 0.0401 |
| CTTCGGAA | inactive: -0.0828 |
| ATACTTCG | ≥ 0.111 |
| GACCCCCC | inactive: -0.352 |
| AGGCTCAC | inactive: -0.163 |
| GTGGGTTA | inactive: -0.0809 |
| ATTCTAGC | inactive: 0.0256 |
| CAGATATG | inactive: 0.0947 |
| TCAAAGAA | inactive: 0.0668 |
| CATAATAC | inactive: 0.236 |
| ATACTAAT | inactive: 0.163 |
| GCATTGGA | inactive: -0.0288 |
| GCCATGCC | inactive: -0.149 |
| GAAGGGTA | inactive: 0.0181 |
| CGTCGCCC | inactive: -0.171 |
| CCCCAGCC | inactive: -0.285 |
| GCTCCAGA | inactive: -0.128 |
| AATCCCAC | inactive: -0.0145 |
| CACAGCTA | inactive: 0.0403 |
| CGATAGGA | inactive: 0.00723 |
| ACGGACGG | inactive: -0.115 |

| Sequence | PBM E-score |
| --- | --- |
| CATTACGC | inactive: -0.011 |
| ATGTGGGC | inactive: -0.027 |
| GGAGATTA | inactive: 0.0459 |
| TGGGCCAA | inactive: -0.11 |
| GAAAACAA | inactive: 0.215 |
| AAGCGATG | inactive: -0.067 |
| ATGGAAGA | inactive: -0.0169 |
| ATGTATAA | active: 0.344 |
| ATAAGCAT | inactive: 0.0746 |
| CAGGTGGG | inactive: -0.134 |
| CAAGATAC | inactive: 0.216 |
| AATCTTCG | ≥ 0.0403 |
| CGGTGATC | inactive: -0.0689 |
| TGAACGCA | ≥ 0.0319 |
| AGCCGACA | inactive: 0.0713 |
| CTATCTCC | inactive: -0.0343 |
| AACTGTCG | inactive: 0.081 |
| AGCGACAC | inactive: 0.188 |
| CCTTCTTC | inactive: -0.0726 |
| AATCCTCC | inactive: -0.132 |
| ACGGCTGA | ≥ -0.0396 |
| CAAGCGGA | inactive: -0.0208 |
| CCTTGCTA | inactive: 0.0673 |
| GAGCCCCC | inactive: -0.346 |
| ATCTTAAA | inactive: -0.0278 |

| Sequence | PBM E-score |
| --- | --- |
| ATACTTCA | inactive: 0.0715 |
| CAATAAGA | inactive: 0.0892 |
| ATCCCCGA | inactive: -0.0851 |
| ACGGCTCT | inactive: -0.188 |
| CAGCGACC | inactive: -0.177 |
| AAGTCAAC | inactive: 0.0982 |
| AATATCAC | inactive: 0.125 |
| AGTTCTCG | inactive: 0.0205 |
| ATTTGCTG | inactive: 0.0976 |
| TCGCCAAA | inactive: -0.1 |
| CCTCATTA | inactive: 0.0512 |
| AATCCTTG | inactive: 0.081 |
| GGAGGCGA | inactive: -0.22 |
| AGCTGAGC | inactive: -0.235 |
| CTGCGATC | inactive: -0.0123 |
| AAAGGCAT | inactive: 0.0549 |
| ACTTTCAT | inactive: 0.00867 |
| AATAGGGC | inactive: -0.0654 |
| ATTCTCAG | inactive: 0.0238 |
| ATCAGAAA | inactive: 0.106 |
| AACGCCCC | inactive: -0.182 |
| TGTAACAA | active: 0.405 |
| CAGGTGGA | inactive: -0.11 |
| CGTCTGAC | inactive: -0.0706 |
| ATCTTAAG | inactive: -0.0841 |

| Sequence | PBM E-score |
| --- | --- |
| CTTAACTA | inactive: 0.114 |
| CTAGTGAG | inactive: -0.135 |
| CAACTGAC | inactive: 0.00851 |
| ACGAAAAG | inactive: -0.0452 |
| GAAAAAGC | inactive: -0.19 |
| GCTCCACA | inactive: -0.0519 |
| ATGCTATA | inactive: 0.11 |
| AAGAAATA | inactive: 0.127 |
| CTCCTTTA | inactive: -0.0502 |
| GCAATAGA | inactive: -0.0405 |
| AACACGTT | inactive: 0.292 |
| GTACATAC | inactive: 0.307 |
| AGCGCCGA | inactive: -0.181 |
| AGAGCCTA | inactive: -0.0924 |
| TCTGCAAA | inactive: 0.0257 |
| ATCACAAC | inactive: 0.212 |
| CTTTTCCC | inactive: -0.00826 |
| ATTGCATC | inactive: 0.0898 |
| ATGAGTAA | inactive: 0.0849 |
| AGAAAGTG | inactive: 0.026 |
| AAAGTAAA | inactive: 0.0632 |
| AAGAAGAT | inactive: 0.0416 |
| CGGTGAAA | inactive: -0.001 |
| AACATGGC | active: 0.328 |
| AATGGGAA | inactive: -0.00757 |

| Sequence | PBM E-score |
| --- | --- |
| ATACAATG | inactive: 0.248 |
| GGGGCACC | inactive: -0.26 |
| AAAGTTCT | inactive: -0.0156 |
| ACGGCGAT | ≥ 0.0135 |
| ACGCGACG | inactive: -0.0146 |
| CACTACAA | inactive: 0.266 |
| AATTTAGC | inactive: -0.0582 |
| CAAATCTG | inactive: 0.0723 |
| CTCCCCGA | inactive: -0.166 |
| AAACTTCA | inactive: 0.0706 |
| GATTAAGC | inactive: -0.0591 |
| ACATAAGT | inactive: 0.282 |
| CGTCGCTA | inactive: -0.0518 |
| TCGGTCAA | inactive: 0.0561 |
| CGCCTTGA | inactive: -0.107 |
| GCACTCCC | inactive: -0.15 |
| ATCGAGAT | inactive: 0.0306 |
| CCGACCTA | inactive: -0.0546 |
| GAAACTGA | inactive: -0.0219 |
| AAAGACCG | inactive: -0.0898 |
| CGTTAACG | inactive: -0.0581 |
| TGCCGTAA | inactive: -0.0481 |
| CAAGAACC | inactive: 0.0713 |
| ATAATTCA | inactive: 0.149 |
| GAAGGCGC | inactive: -0.223 |

| Sequence | PBM E-score |
| --- | --- |
| GAGCCTAA | inactive: 0.00798 |
| AGCTATTA | inactive: 0.0848 |
| CCGTTCCA | inactive: 0 |
| TCTGACAA | inactive: 0.217 |
| CGCAACTA | inactive: 0.00578 |
| CAAAGCGG | inactive: -0.128 |
| AGCGTCAT | inactive: -0.00681 |
| CACTATGG | inactive: -0.0272 |
| CAATCCAG | inactive: -0.076 |
| CTTTACGC | inactive: 0.0204 |
| GACTCGTA | inactive: 0.0803 |
| ACACATAG | inactive: 0.174 |
| AGAGTGTG | inactive: 0.0333 |
| ACAGTTAG | inactive: 0.0221 |
| ATTGCAGC | inactive: 0.00162 |
| ACAGCGGG | inactive: -0.082 |
| ACTTGCAT | inactive: 0.137 |
| GCTACGTA | inactive: 0.0317 |
| ATGCCTGG | inactive: -0.043 |
| ACCTAAAC | inactive: 0.0229 |
| CCCATACA | inactive: 0.0806 |
| CGGCTGCA | inactive: -0.165 |
| GTTCTACA | inactive: 0.146 |
| GGGGAAAA | inactive: -0.102 |
